From the supplement of paper PMC8728848
The other results are listed elsewhere or left out.

Legend:
Assay in all cases: glycan array binding signal (z-score within array); higher = stronger binding
Conditions in all cases: glycan notation: IUPAC condensed, linker removed
[1] = target: Neu5Ac(a2-3)Gal(b1-4)GlcNAc(b1-3)Gal(b1-4)GlcNAc(b1-2)Man(a1-3)[Neu5Ac(a2-3)Gal(b1-4)GlcNAc(b1-3)Gal(b1-4)GlcNAc(b1-2)Man(a1-6)]Man(b1-4)GlcNAc(b1-4)GlcNAc
Outline: (§1)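 Negative Z-scores can be read as non-binding. The Z-score is calculated within each array and then averaged across arrays of one protein sequence at different concentrations or buffers and across linkers. Arrays, 3228 in all, were curated from the Consortium for Functional Glycomics database and kept only where the protein sequence was available.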

[2] = target: Neu5Ac(a2-3)Gal(b1-4)GlcNAc(b1-3)Gal(b1-4)GlcNAc(b1-3)Gal(b1-4)GlcNAc
Outline: as §1

[3] = target: Neu5Ac(a2-3)Gal(b1-4)GlcNAc(b1-3)Gal(b1-4)GlcNAc(b1-3)Gal(b1-4)GlcNAc(b1-2)Man(a1-3)[Neu5Ac(a2-3)Gal(b1-4)GlcNAc(b1-3)Gal(b1-4)GlcNAc(b1-3)Gal(b1-4)GlcNAc(b1-2)Man(a1-6)]GalNAc
Outline: as §1

[4] = target: Neu5Ac(a2-3)Gal(b1-4)GlcNAc(b1-3)Gal(b1-4)GlcNAc(b1-3)GalNAc
Outline: as §1

[5] = target: Neu5Ac(a2-3)Gal(b1-4)GlcNAc(b1-3)Gal(b1-4)GlcNAc(b1-3)[Neu5Ac(a2-3)Gal(b1-4)GlcNAc(b1-3)Gal(b1-4)GlcNAc(b1-6)]GalNAc
Outline: as §1

[6] = target: Neu5Ac(a2-3)Gal(b1-4)GlcNAc(b1-3)Gal(b1-4)GlcNAc(b1-6)[Gal(b1-3)]GalNAc
Outline: as §1

[7] = target: Neu5Ac(a2-3)Gal(b1-4)GlcNAc(b1-3)Gal(b1-4)[Fuc(a1-3)]GlcNAc
Outline: as §1

[8] = target: Neu5Ac(a2-3)Gal(b1-4)GlcNAc(b1-3)GalNAc
Outline: as §1

[9] = target: Neu5Ac(a2-3)Gal(b1-4)GlcNAc(b1-3)[Neu5Ac(a2-3)Gal(b1-4)GlcNAc(b1-6)]GalNAc
Outline: as §1

[10] = target: Neu5Ac(a2-3)Gal(b1-4)GlcNAc(b1-6)GalNAc
Outline: as §1

[11] = target: Neu5Ac(a2-3)Gal(b1-4)GlcNAc(b1-6)[Gal(b1-3)]GalNAc
Outline: as §1

[12] = target: Neu5Ac(a2-3)Gal(b1-4)GlcNAc(b1-6)[Neu5Ac(a2-3)Gal(b1-3)]GalNAc
Outline: as §1

[13] = target: Neu5Ac(a2-3)Gal(b1-4)GlcNAc6S
Outline: as §1

[14] = target: Neu5Ac(a2-3)Gal(b1-4)[Fuc(a1-3)]GlcNAc
Outline: as §1

[15] = target: Neu5Ac(a2-3)Gal(b1-4)[Fuc(a1-3)]GlcNAc(b1-2)Man
Outline: as §1

[16] = target: Neu5Ac(a2-3)Gal(b1-4)[Fuc(a1-3)]GlcNAc(b1-3)Gal
Outline: as §1

[17] = target: Neu5Ac(a2-3)Gal(b1-4)[Fuc(a1-3)]GlcNAc(b1-3)Gal(b1-4)GlcNAc
Outline: as §1

[18] = target: Neu5Ac(a2-3)Gal(b1-4)[Fuc(a1-3)]GlcNAc(b1-3)Gal(b1-4)[Fuc(a1-3)]GlcNAc(b1-3)Gal(b1-4)[Fuc(a1-3)]GlcNAc
Outline: as §1

[19] = target: Neu5Ac(a2-3)Gal(b1-4)[Fuc(a1-3)]GlcNAc(b1-3)GalNAc
Outline: as §1

[20] = target: Neu5Ac(a2-3)Gal(b1-4)[Fuc(a1-3)]GlcNAc(b1-6)[Gal(b1-3)]GalNAc
Outline: as §1

[21] = target: Neu5Ac(a2-3)Gal(b1-4)[Fuc(a1-3)]GlcNAc(b1-6)[Neu5Ac(a2-3)Gal(b1-3)]GalNAc
Outline: as §1

[22] = target: Neu5Ac(a2-3)Gal(b1-4)[Fuc(a1-3)]GlcNAc6S
Outline: as §1

[23] = target: Neu5Ac(a2-3)Gal6S(b1-4)GlcNAc
Outline: as §1

B1: CFEM-PPm (Pichia pastoris), F2QPV1 (protein)
chain: AVATPPACLLACAAEVVKESSDCDALNNIQCICENEGSAIHACLESTCPDGLSSTALQSFEDVCE
In the case of B1, the “glycan array binding signal (z-score)” value [1] is reported as -0.093, the “glycan array binding signal (z-score)” value [2] is reported as -0.33 and the “glycan array binding signal (z-score)” value [3] is reported as 0.587. The “glycan array binding signal (z-score)” value [4] was -0.282, the “glycan array binding signal (z-score)” value [5] was -0.268 and the “glycan array binding signal (z-score)” value [6] was 0.598. The “glycan array binding signal (z-score)” value [7] was -0.228, the “glycan array binding signal (z-score)” value [8] was -0.264 and the “glycan array binding signal (z-score)” value [9] was -0.046. The “glycan array binding signal (z-score)” value [10] was -0.282, the “glycan array binding signal (z-score)” value [11] was 0.188 and the “glycan array binding signal (z-score)” value [12] was -0.376. For the same binder, the “glycan array binding signal (z-score)” value [13] was -0.23, the “glycan array binding signal (z-score)” value [14] was -0.366 and the “glycan array binding signal (z-score)” value [15] was 0.005. The “glycan array binding signal (z-score)” value [16] was 0.048, the “glycan array binding signal (z-score)” value [17] was 0.148 and the “glycan array binding signal (z-score)” value [18] was -0.34. The “glycan array binding signal (z-score)” value [19] was 0.862, the “glycan array binding signal (z-score)” value [20] was 0.784 and the “glycan array binding signal (z-score)” value [21] was 0.431. The “glycan array binding signal (z-score)” value [22] was -0.308 and the “glycan array binding signal (z-score)” value [23] was -0.43.
